Reference: the supplement of paper PMC4604168 (melanoma cell lines)
The list shows a part of the results. Single values are uncertain, as repeats are few or missing.
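Further: cells treated in 1,536-well plates, then fixed and DAPI-stained, with nuclei counted from automated high-throughput microscope images.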

The compounds below were run on MEL-HO (assay: cell count relative to DMSO control; melanoma cells; higher = more viable cells). Details: library dose: standard library concentration; 72 h.
`O=C(Nc1cc(C(F)(F)F)cc(C(F)(F)F)c1)c1cc(Cl)ccc1O` + Nc1ncn([C@H]2C[C@H](O)[C@@H](CO)O2)c(=O)n1 [decitabine] (first compound 0.08 µM, partner dose 0.5 µM) was tested, and the cell count was 65.5%. With `O=C(O)[C@@H]1[O][Sb](=[O])([O][Sb]2(=[O])[O][C@H]([C@H](O)CO)[C@H](O)[C@H](C(=O)O)[O]2)[O][C@H]([C@H](O)CO)[C@@H]1O` (stereo partly specified) [stibogluconate] + N#Cc1c(O)c2c(-c3ccc(-c4ccccc4O)cc3)csc2[nH]c1=O [A769662] (first compound 10 µM, partner dose 10 µM) the cell count was 92.2%. For `O=C(Nc1ccccc1)c1cc([N+](=O)[O-])ccc1Cl` + Cc1cc([N+](=O)[O-])ccc1NS(=O)(=O)c1cc(Cl)ccc1Cl [FH535] (first compound 10 µM, partner dose 5 µM), the cell count was 49.6%. For `O=C(Nc1cc(C(F)(F)F)cc(C(F)(F)F)c1)c1cc(Cl)ccc1O` + Nc1ccn([C@@H]2O[C@H](CO)[C@@H](O)C2(F)F)c(=O)n1 [gemcitabine] (first compound 0.08 µM, partner dose 0.002 µM), the cell count was 50.2%. With `O=C(Nc1cc(C(F)(F)F)cc(C(F)(F)F)c1)c1cc(Cl)ccc1O` + C=CCn1c(=O)c2cnc(Nc3ccc(N4CCN(C)CC4)cc3)nc2n1-c1cccc(C(C)(C)O)n1 [MK1775] (first compound 0.08 µM, partner dose 0.1 µM) the cell count was 88.5%. `O=C(Nc1cc(C(F)(F)F)cc(C(F)(F)F)c1)c1cc(Cl)ccc1O` + CCCCCCCCCCCC1=C(O)C(=O)C=C(O)C1=O [Embelin] (first compound 0.08 µM, partner dose 6 µM) was tested, and the cell count was 69.7%. `Cn1nnc2c(C(N)=O)ncn2c1=O` [temozolomide] + CCN(CC)CCCCNc1ncc2cc(-c3cc(OC)cc(OC)c3)c(NC(=O)NC(C)(C)C)nc2n1 [PD173074] (first compound 10 µM, partner dose 0.5 µM) was tested, and the cell count was 102%. `O=C(O)[C@@H]1[O][Sb](=[O])([O][Sb]2(=[O])[O][C@H]([C@H](O)CO)[C@H](O)[C@H](C(=O)O)[O]2)[O][C@H]([C@H](O)CO)[C@@H]1O` (stereo partly specified) [stibogluconate] + Nc1ncn([C@H]2C[C@H](O)[C@@H](CO)O2)c(=O)n1 [decitabine] (first compound 10 µM, partner dose 0.5 µM) gave a cell count of 86.6%. `O=C(O)c1ccc2c(c1)nc(Nc1cccc(Cl)c1)c1ccncc12` + C=CCn1c(=O)c2cnc(Nc3ccc(N4CCN(C)CC4)cc3)nc2n1-c1cccc(C(C)(C)O)n1 [MK1775] (first compound 2 µM, partner dose 0.1 µM) showed a cell count of 57.6%. `O=C(O)c1ccc2c(c1)nc(Nc1cccc(Cl)c1)c1ccncc12` + COc1cc(N2CCC(N3CCN(C)CC3)CC2)ccc1Nc1ncc(Cl)c(Nc2ccccc2S(=O)(=O)C(C)C)n1 [NVP-TAE684] (first compound 2 µM, partner dose 0.4 µM) showed a cell count of 54.2%. `O=C(O)c1ccc2c(c1)nc(Nc1cccc(Cl)c1)c1ccncc12` + Cc1cc([N+](=O)[O-])ccc1NS(=O)(=O)c1cc(Cl)ccc1Cl [FH535] (first compound 2 µM, partner dose 5 µM) was tested, and the cell count was 51.6%. `O=C(Nc1cc(C(F)(F)F)cc(C(F)(F)F)c1)c1cc(Cl)ccc1O` + Cn1c(Nc2ccc(C(F)(F)F)cc2)nc2cc(Oc3ccnc(-c4ncc(C(F)(F)F)[nH]4)c3)ccc21 [CHIR265] (first compound 0.08 µM, partner dose 0.4 µM) gave a cell count of 68.4%. For `O=C(O)[C@@H]1[O][Sb](=[O])([O][Sb]2(=[O])[O][C@H]([C@H](O)CO)[C@H](O)[C@H](C(=O)O)[O]2)[O][C@H]([C@H](O)CO)[C@@H]1O` (stereo partly specified) [stibogluconate] + COc1cc2ncnc(Nc3ccc(Oc4ccccc4)cc3)c2cc1OC [SrcI1] (first compound 10 µM, partner dose 10 µM), the cell count was 92.7%. With `O=C(O)c1ccc2c(c1)nc(Nc1cccc(Cl)c1)c1ccncc12` + C#Cc1cccc(Nc2ncnc3cc(OCCOC)c(OCCOC)cc23)c1 [erlotinib] (first compound 2 µM, partner dose 4 µM) the cell count was 45.7%. Compound `Cc1cc(N2CCOCC2)cc2[nH]c(-c3c(NC[C@@H](O)c4cccc(Cl)c4)cc[nH]c3=O)nc12` + Oc1cc(-c2nc(-c3ccccc3)[nH]c2-c2ccncc2)ccc1Cl [L779450] (first compound 1 µM, partner dose 1 µM) has a cell count of 83.3%. With `O=C(O)[C@@H]1[O][Sb](=[O])([O][Sb]2(=[O])[O][C@H]([C@H](O)CO)[C@H](O)[C@H](C(=O)O)[O]2)[O][C@H]([C@H](O)CO)[C@@H]1O` (stereo partly specified) [stibogluconate] + O=S(=O)(c1ccccc1)N(CC(F)(F)F)c1ccc(C(O)(C(F)(F)F)C(F)(F)F)cc1 [T0901317] (first compound 10 µM, partner dose 7 µM) the cell count was 96.3%. `O=C(O)[C@@H]1[O][Sb](=[O])([O][Sb]2(=[O])[O][C@H]([C@H](O)CO)[C@H](O)[C@H](C(=O)O)[O]2)[O][C@H]([C@H](O)CO)[C@@H]1O` (stereo partly specified) [stibogluconate] + Cn1cncc1[C@@](N)(c1ccc(Cl)cc1)c1ccc2c(c1)c(-c1cccc(Cl)c1)cc(=O)n2C [tipifarnib] (first compound 10 µM, partner dose 0.05 µM) gave a cell count of 104%. Compound `O=C(Nc1cc(C(F)(F)F)cc(C(F)(F)F)c1)c1cc(Cl)ccc1O` + COc1ccc(COc2ccc(Cc3cnc(N)nc3N)cc2OC)cc1 [GW2580] (first compound 0.08 µM, partner dose 5 µM) has a cell count of 84.9%. With `O=C(Nc1cc(C(F)(F)F)cc(C(F)(F)F)c1)c1cc(Cl)ccc1O` + Cc1cc([N+](=O)[O-])ccc1NS(=O)(=O)c1cc(Cl)ccc1Cl [FH535] (first compound 0.08 µM, partner dose 5 µM) the cell count was 55.5%. `O=C(Nc1cc(C(F)(F)F)cc(C(F)(F)F)c1)c1cc(Cl)ccc1O` + Cn1cc(/C=C2\C(=O)Nc3cccnc32)c2ccccc21 [GW441756] (first compound 0.08 µM, partner dose 2 µM) showed a cell count of 84.8%. In the case of `O=C(O)c1ccc2c(c1)nc(Nc1cccc(Cl)c1)c1ccncc12` + CCc1ccc(CCOc2ccc(CC3SC(=O)NC3=O)cc2)nc1 [pioglitazone] (first compound 2 µM, partner dose 10 µM), the cell count is reported as 52.9%. `Cc1cc(N2CCOCC2)cc2[nH]c(-c3c(NC[C@@H](O)c4cccc(Cl)c4)cc[nH]c3=O)nc12` + CC(C)CCN1c2nc(Nc3cc(F)c(O)c(F)c3)ncc2N(C)C(=O)C1C [BID1870] (first compound 1 µM, partner dose 1 µM) gave a cell count of 72.3%. `O=C(Nc1ccccc1)c1cc([N+](=O)[O-])ccc1Cl` + COc1ccc(-c2ccc3c(N4CCOCC4)nc(N4C[C@@H](C)O[C@@H](C)C4)nc3n2)cc1CO [KU0063794] (first compound 10 µM, partner dose 0.1 µM) showed a cell count of 76.4%. With `O=C(O)c1ccc2c(c1)nc(Nc1cccc(Cl)c1)c1ccncc12` + O=c1cc(-c2cccc3c2Sc2ccccc2S3)oc(N2CCOCC2)c1 [KU55933] (first compound 2 µM, partner dose 5 µM) the cell count was 58.7%. Work on `O=C(O)c1ccc2c(c1)nc(Nc1cccc(Cl)c1)c1ccncc12` + c1cc(-c2cnn3cc(-c4ccc(OCCN5CCCCC5)cc4)cnc23)ccn1 [Dorsomorphin] (first compound 2 µM, partner dose 2 µM) yielded a cell count of 67.5%. For `Cn1nnc2c(C(N)=O)ncn2c1=O` [temozolomide] + Cc1cc([N+](=O)[O-])ccc1NS(=O)(=O)c1cc(Cl)ccc1Cl [FH535] (first compound 10 µM, partner dose 5 µM), the cell count was 61%. `O=C(Nc1cc(C(F)(F)F)cc(C(F)(F)F)c1)c1cc(Cl)ccc1O` + COc1ccc2c(c1)CCC1C2CCC2(C)C(NCCCCCCN3C(=O)C=CC3=O)CCC12 [U73122] (first compound 0.08 µM, partner dose 2 µM) gave a cell count of 112%. `Cc1cc(N2CCOCC2)cc2[nH]c(-c3c(NC[C@@H](O)c4cccc(Cl)c4)cc[nH]c3=O)nc12` + Oc1nc(-c2ccc(C(F)(F)F)cc2)nc2c1CSCC2 [XAV939] (first compound 1 µM, partner dose 10 µM) gave a cell count of 80.8%. `O=C(Nc1cc(C(F)(F)F)cc(C(F)(F)F)c1)c1cc(Cl)ccc1O` + CC(=O)O[C@@]12CO[C@@H]1C[C@H](O)[C@@]1(C)C(=O)[C@H](O)C3=C(C)[C@@H](OC(=O)[C@H](O)[C@@H](NC(=O)OC(C)(C)C)c4ccccc4)C[C@@](O)([C@@H](OC(=O)c4ccccc4)[C@H]21)C3(C)C [Docetaxel] (first compound 0.08 µM, partner dose 0.0005 µM) gave a cell count of 43.3%. With `O=C(Nc1ccccc1)c1cc([N+](=O)[O-])ccc1Cl` + O=S(=O)(c1ccccc1)N(CC(F)(F)F)c1ccc(C(O)(C(F)(F)F)C(F)(F)F)cc1 [T0901317] (first compound 10 µM, partner dose 7 µM) the cell count was 79.3%. `O=C(Nc1cc(C(F)(F)F)cc(C(F)(F)F)c1)c1cc(Cl)ccc1O` + CCc1ccc(CCOc2ccc(CC3SC(=O)NC3=O)cc2)nc1 [pioglitazone] (first compound 0.08 µM, partner dose 10 µM) was tested, and the cell count was 92.5%.
